Assay results: article PMC4336329 (PLoS ONE, 2015)
In all, about 310,000 compounds went through this assay and about 2,200 (0.71%) showed an effect of 50% or more. Effects have a minus sign here. The list shows a part of the results.

The molecules below were run against human ether-à-go-go-related gene (hERG) potassium channel (human, UniProt Q12809) (assay: primary screen, population patch clamp on CHO cells stably expressing hERG).
human ether-à-go-go-related gene (hERG) potassium channel, sequence (Q12809 whole entry, looked up): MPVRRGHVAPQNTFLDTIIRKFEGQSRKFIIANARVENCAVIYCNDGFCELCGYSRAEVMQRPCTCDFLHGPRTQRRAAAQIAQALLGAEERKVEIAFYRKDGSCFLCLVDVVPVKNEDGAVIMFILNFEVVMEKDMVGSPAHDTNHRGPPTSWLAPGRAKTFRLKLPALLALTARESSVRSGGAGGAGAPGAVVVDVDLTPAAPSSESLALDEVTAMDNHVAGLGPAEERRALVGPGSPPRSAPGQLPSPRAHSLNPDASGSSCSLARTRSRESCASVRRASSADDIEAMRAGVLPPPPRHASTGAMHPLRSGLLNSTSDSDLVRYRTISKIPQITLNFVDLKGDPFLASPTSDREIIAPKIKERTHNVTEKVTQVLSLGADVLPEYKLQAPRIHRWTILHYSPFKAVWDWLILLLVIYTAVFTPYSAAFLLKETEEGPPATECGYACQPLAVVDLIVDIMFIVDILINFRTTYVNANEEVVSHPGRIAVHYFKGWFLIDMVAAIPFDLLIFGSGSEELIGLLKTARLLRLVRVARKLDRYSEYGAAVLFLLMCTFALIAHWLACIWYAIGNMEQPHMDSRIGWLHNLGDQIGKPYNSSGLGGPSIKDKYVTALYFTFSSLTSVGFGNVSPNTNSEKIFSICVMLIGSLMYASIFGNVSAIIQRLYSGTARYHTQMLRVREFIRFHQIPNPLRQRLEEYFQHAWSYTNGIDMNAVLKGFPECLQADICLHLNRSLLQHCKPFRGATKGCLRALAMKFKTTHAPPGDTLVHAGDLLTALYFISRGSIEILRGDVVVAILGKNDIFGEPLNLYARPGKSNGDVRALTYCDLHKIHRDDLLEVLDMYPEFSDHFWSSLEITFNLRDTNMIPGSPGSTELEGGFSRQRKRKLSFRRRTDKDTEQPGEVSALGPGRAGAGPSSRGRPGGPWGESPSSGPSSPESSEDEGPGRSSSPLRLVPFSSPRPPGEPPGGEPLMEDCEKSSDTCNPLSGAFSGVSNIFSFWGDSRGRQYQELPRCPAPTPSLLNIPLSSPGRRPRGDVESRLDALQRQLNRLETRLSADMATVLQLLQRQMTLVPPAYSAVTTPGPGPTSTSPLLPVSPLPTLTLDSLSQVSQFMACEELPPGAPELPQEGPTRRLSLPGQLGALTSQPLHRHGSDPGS

SMILES | hERG current change (%, negative = inhibition) at 1uM [%]
COc1ccc(C(=O)N2CCN(Cc3ccccc3[N+](=O)[O-])CC2)cc1.O=C(O)C(=O)O | -20.9
CCOC(=O)CN1CC23C=CC(O2)C(C(=O)N2CCN(c4ccc(F)cc4)CC2)C3C1=O (stereo not drawn) | 6.27
O=C(C1=C(O)C(=O)N(CCc2ccccc2)C1c1ccncc1)c1cc2ccccc2o1 (stereo not drawn) | 3.54
CN(CCOC(=O)c1ccc2c(c1)OCO2)C(C)(C)C.Cl | 6.18
Nc1ccc(C(=O)N/N=C/c2cccc(Oc3ccccc3)c2)cc1 | 13.1
CCOC(=O)c1oc2ccc(S(=O)(=O)n3nc(-c4ccc(C)cc4)cc3N)cc2c1C | 7.43
Nn1c(SCc2ccc([N+](=O)[O-])cc2)nc2ccccc2c1=O | 14.4
Cc1nc2ncnn2c(C)c1CCC(=O)NCc1ccccc1 | -4.34
CCC1(C)Cc2c(sc3c2c(=O)n(C)c2nnc(SCCc4ccccc4)n32)CO1 (stereo not drawn) | 0.706
O=C(O)c1ccc(Oc2ccc(S(=O)(=O)c3ccc(C(=O)O)c(C(=O)O)c3)cc2)cc1 | 11.8
O=c1c2[nH]c3ccccc3c2ncn1C1CCCCC1 | -2.89
COc1ccccc1N(CC(=O)NCc1ccco1)C(=O)CCC(=O)Nc1ccccn1 | 7.79
CN1C(=O)NC(c2ccccc2)(C(F)(F)F)S/C1=C(/C#N)c1nnc(N2CCOCC2)n1-c1ccccc1 (stereo not drawn) | -9.45
CC(=O)C1=C(C)N2CCN=C2S1 | 9.59
NC(=O)c1ccsc1NC(=O)COC(=O)CNC(=O)c1cccc([N+](=O)[O-])c1 | 7.42
CCOC(=O)NC(=O)COC(=O)c1ccc(O)cc1 | 8.16
CN(c1ccc(C(=O)N2CCCCC2)cc1)S(C)(=O)=O | 19.2
CCOc1ccc(/C=C2\SC(N3CCCCC3)=NC2=O)cc1 | -10
Cc1c(C(c2ccc(C(=O)O)cc2)c2c(C)n(C)n(-c3ccccc3)c2=O)c(=O)n(-c2ccccc2)n1C.Cl | 10.3
COc1ccc2c(c1OC)C(=O)N(c1ccc(F)cc1)C2 | 7.42
CCC1(C)CC(C(CC(=O)O)c2ccc(C)cc2)CCO1 (stereo not drawn) | 13.1
O=C(Nc1ccccc1N1CCOCC1)C1=COCCO1 | 13.2

SMILES | hERG current change (%, negative = inhibition) at 1uM [%]
O=S(=O)(/N=C/c1c(O)ccc2ccccc12)c1cccs1 | 5.33
CC(=O)NC1CC2CCCC(C1)N2S(=O)(=O)c1cccc(F)c1 (stereo not drawn) | 8.53
Cc1cc(C)c2c(N=NN3CCOCC3)[nH]nc2n1 | 4.17
O=C(NCCCN1CCOCC1)c1onc(CSc2nc3ccccc3[nH]2)c1C(=O)NCCCN1CCOCC1 | 12
O=C(CCC(=O)N1CCN(c2ccc(O)cc2)CC1)c1cccs1 | 5.69
Cc1cccc(C)c1NC(=O)CN(C)C(=O)c1ccccc1OCc1ccc(F)cc1 | 10.6
CCN(CC)S(=O)(=O)c1ccc(N2C(=O)Nc3ccccc3N2O)cc1 | 12.1
CCCc1c(C(=O)N2CCN(c3ccccc3OC)CC2)cnn1-c1ccccc1 | 10.4
C=CCOC(=O)c1ccc(-n2cnc(C)n2)nc1 | 7.25
O=C(CN1CCOCC1)Nc1cccc(Cl)c1Cl | -10.5
COC(=O)c1c(N)n(Cc2ccc(OC)cc2)c2nc3ccccc3nc12 | 1.56
O=C(Nc1cccnc1)C1CCN(S(=O)(=O)c2cccs2)CC1 | 24.5
COc1ccc(N(CC(=O)N2CCN(Cc3ccccc3)CC2)S(C)(=O)=O)cc1 | 11.2
Cc1ccc(OCC(=O)NNC(=O)C(=O)N2CCCC2)c(C)c1 | 4.9
CCCCN1C(=O)C2C(c3ccc(OC)cc3O)NC(CC(C)C)(C(=O)O)C2C1=O (stereo not drawn) | 3.19
CC1CC(C)(C)CC2(C1)NC(=S)N(c1ccccc1)N2 (stereo not drawn) | 11.9
COc1ccc(/C=N/c2c(-c3ccc(OC)cc3)nc3n2CCS3)cc1 | 12.7
Cc1c(C(=O)c2ccc(F)cc2)c2ccccn2c1CCc1ccccn1 | -0.427
CC(=O)c1ccc(N2CCN(c3ncc(C(F)(F)F)cc3Cl)CC2)cc1 | 14.6
CCOC(=O)c1cccnc1SC(CC)C(=O)N1CCOCC1 (stereo not drawn) | -11.3
O=C(NN1CC(C(=O)OCc2ccc(Br)cc2)CC1=O)c1ccccc1 (stereo not drawn) | 11.6
Nc1nccc(-c2ccc(-n3cccc3)cc2)n1 | 11.6

SMILES | hERG current change (%, negative = inhibition) at 1uM [%]
CC1(c2nnc(Cc3ccccc3)o2)CC(c2cccc([N+](=O)[O-])c2)=NO1 (stereo not drawn) | 7.89
O=C1CCc2cc(S(=O)(=O)N3CCC(C(=O)NCc4ccccc4Cl)CC3)ccc2N1 | 14.7
COC(=O)CN1C(=O)C(C)(C)Oc2ccc(C(=O)Nc3cccc(OC)c3)cc21 | 17.5
COc1ccc(-c2noc3c2-c2nc(-c4cccc(C)c4)sc2CC3)cc1 | 7.86
Cc1cccc(NC(=O)CN2CCN(C(=O)CNC(=O)Cc3cccc4ccccc34)CC2)c1C | -14.2
O=S(=O)(c1cccs1)N1CCN(CCOc2ccc(Cl)cc2)CC1 | 5.87
Oc1ccc(-c2nc3c4c(ncn3n2)-c2ccccc2CC42CCCC2)cc1 | 12.3
CCC(C)C(NC(N)=O)C(=O)Nc1ccc(C(=O)OC)cc1 (stereo not drawn) | 17.1
CC1(C)CC[C@]2(CO)[C@@H](O)C[C@]3(C)C(=CCC4[C@@]5(C)CC[C@H](O)C(C)(C)C5CC[C@]43C)[C@@H]2C1 (stereo partly drawn) | 14.4
CN(C)CCCN(C(=O)c1ccc(S(=O)(=O)N2CCCCC2)cc1)c1nc2cc3c(cc2s1)OCO3.Cl | -17.7
CCCCOC(=O)c1ccc(NC(=O)c2cnccn2)cc1 | 18
Cl.O=C(NCCOC(=O)C1COc2ccccc2O1)c1cccnc1 (stereo not drawn) | 6.02
CCOC(=O)c1cc(C)n(Cc2cccc(OC)c2OC)c1C | 3.44
CCOC(=O)CSc1nnc(-c2ccoc2C)n1-c1ccc(C)cc1 | 7.78
CCOCC(=O)Nc1sc2c(c1C(=O)OCC)CCCC2 | -7.69
CCS(=O)(=O)N1N=C(c2cccc(NS(C)(=O)=O)c2)CC1c1ccc(C)cc1 (stereo not drawn) | -18.5
COc1ccc(-c2nnnn2-c2ccc(F)cc2F)cc1 | 12
C=CCNC(=S)N1CCN(c2ncc3c(=O)c(C(=O)O)cn(CC)c3n2)CC1 | 1.54
Cc1ccc(-n2c(C)nn(-c3ncc(C(F)(F)F)cc3Cl)c2=O)cc1 | 9.4
Cl.c1ccc(NCc2cccc3ccccc23)nc1 | 12.3
Clc1ccc(-c2csc(-c3cccnc3)n2)s1 | 13.6
C=C(C)[C@@H](O)COc1c2ccoc2cc2oc(=O)ccc12 | 17.3

SMILES | hERG current change (%, negative = inhibition) at 1uM [%]
COC(=O)c1sc(NC(=O)c2ccco2)c(C#N)c1C | 2.76
Cc1ccc(C)c2[nH]c(=O)c(CN(Cc3ccco3)C(=O)Nc3ccccc3)cc12 | 9.87
Cc1ccc([C@@H]2[C@@H]3C(=O)N(C)C(=O)[C@@H]3[C@]3(C)C(=O)N(CC4CC4)CC(=O)N23)o1 | 8.81
O=C(c1ccco1)N1CCN(S(=O)(=O)c2ccccc2[N+](=O)[O-])CC1 | 12.5
O=c1c2ccccc2nnn1Cc1ccccn1 | 17
Cc1ccc2[nH]c(=O)c(CN(CCCO)S(=O)(=O)c3c(C)ccc4nsnc34)cc2c1 | 2.9
Clc1ccc(Cc2noc(CN3CCN(c4ccccc4)CC3)n2)c(Cl)c1 | 3.7
O=C(CSCc1c(Cl)cccc1Cl)NCc1ccccn1 | 13.3
CCN(Cc1ccccc1)C(=O)c1cccc(S(=O)(=O)N2CCN(c3ccc(F)cc3)CC2)c1 | 2.69
OCC1OC(n2nnc3ccccc32)C(O)C(O)C1O (stereo not drawn) | 16.2
CC(=O)c1cccc(NC(=O)CN(C2CCCCC2)S(C)(=O)=O)c1 | 11.8
O=C(/C=C/c1ccc[nH]1)c1ccccc1 | 15.3
CSc1nnc2c3ccccc3n(CCc3ccccc3)c2n1 | -11.2
CCc1ccc(NC(=S)N(Cc2cccc(Br)c2)CC2CCC(C(=O)O)CC2)cc1 (stereo not drawn) | 18.8
COc1cccc(CN2CC(C(=O)NCCc3ccc(C)s3)CCC2=O)c1 (stereo not drawn) | 3.04
O=C(NC1=NCCS1)C1COc2ccccc2O1 (stereo not drawn) | 5.11
Cn1nc(C(=O)NC2CCCN(Cc3ccccc3F)C2)c2ccccc2c1=O (stereo not drawn) | -13.2
CCc1cccc(NC(=O)CN2C(=O)NC3(CCCCCCC3)C2=O)c1 | -1.18
CC(=O)O[C@H]1[C@H](C)OC=C[C@@H]1OC(C)=O | 12.7
CC(OC(=O)c1ccccc1C(=O)N(C)C1CCCCC1)C(=O)NC1(C#N)CCCCC1 (stereo not drawn) | -2.84
COc1ccc(CC(C)NCCC(c2ccccc2)c2ccccc2)cc1 (stereo not drawn) | -16.7
